Test results from PubChem BioAssay AID651820 (National Center for Advancing Translational Sciences (NCATS), 2012).
Several values for one entry are separate records, joined by “and”; a condition that tells them apart may be missing. Identical values can stand only once. In all, about 340,000 compounds went through this assay and about 12,000 (3.5%) were called active. The shares of active, inactive and inconclusive entries below differ from those in the screen. Calls come from the whole dose curve; as a rule, active = well fitted inhibition curve with a large enough effect; inconclusive = small, poorly fitted or top-dose-only effect, or another doubt; inactive = no such curve, though single readings can be large or run the other way. A potency beside an inconclusive call is a rough fit, not a confirmed value.

Test: qHTS Assay for Inhibitors of Hepatitis C Virus (HCV)
Conditions: Huh7.5.1 HCVcc-Cre (HCVcc is cell-culture hepatitis C virus) infection, luciferase reporter, 44 h; series mostly up to 41.8 µM
Procedure, shortened: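 Infectious HCVcc-Cre (~0.5 moi) was added to cells just after compound, with cells seeded 4 h earlier at 1,000 per well. Luciferase activity after 44 h culture reported infection; substrate was incubated 15 min at room temperature before reading.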
Potency is the fitted concentration of half-maximal effect; tags give direction and shape of the fitted curve.

Row | Structure (SMILES) | Potency
1 | CN(C)c1ncc(S(=O)(=O)c2ccccc2)c(-c2ccc(Cl)cc2Cl)n1 | inactive
2 | O=C(NCc1ccc(F)cc1)c1ccc(CS(=O)(=O)Cc2ccc(F)cc2)o1 | inactive
3 | CC(=O)Nc1ccc(CN2CCc3c([nH]c4ccccc34)C2C(C)(C)C)cc1 (stereo unspecified) | inactive
4 | COc1ccc(C(=S)N2CCN(c3ccccc3Cl)CC2)cc1OC | inconclusive: 22.4 µM [inhibitor, single point]
5 | CCN1CCN(C(=O)c2cc3nc(-c4ccccc4)cc(C(F)(F)F)n3n2)CC1 | inconclusive: 12.6 µM [inhibitor, single point]
6 | Cc1ccc(-n2nc3c(=O)n(CC(=O)NCCCc4ccccc4)nc(C)c3c2C)cc1 | inconclusive: 28.2 µM [inhibitor, single point]
7 | O=C(O)Cn1cc(/C=C2\C(=O)NC(=O)N(Cc3ccco3)C2=O)c2ccccc21 | inconclusive: 1 µM [inhibitor, full curve, poor fit]
8 | Cc1ccccc1Cn1c2ccccc2c2cnn(CC(=O)NCc3ccccn3)c(=O)c21 | inactive
9 | CC1=CC(=O)[C@H]2C(C)(C)CCC[C@]2(C)[C@@]1(O)CO | inconclusive: 31.6 µM [inhibitor, single point]
10 | COc1cc(OC)cc(-c2c(C#Cc3ccsc3)c3cc(-c4ccc(OC)c(OC)c4)ccc3n2C)c1 | inconclusive: 11.2 µM [inhibitor, single point]
11 | Cc1ccc(C)c(S(=O)(=O)NC2CCSC2=O)c1 (stereo unspecified) | inactive
12 | Cc1nnc(N=c2ssnc2Cl)o1 | inconclusive: 1 µM [inhibitor, partial curve]
13 | COCCNC(=O)c1cc2oc3ccccc3c2n1C | active: 12.6 µM
14 | COc1cccc(-c2csc(N3CCN(C(=S)Nc4ccccc4OC)CC3)n2)c1 | inconclusive: 31.6 µM [inhibitor, single point]
15 | NCCCC[C@H]1CN=C(N)N1CC1CCCCC1 | inactive
16 | O=C(CC1NCCNC1=O)Nc1ccc([N+](=O)[O-])cc1 (stereo unspecified) | inactive
17 | CCCCOc1ccc(C(=O)N2CCN(CC(=O)Nc3ccc(C)cc3)CC2)cc1OC | inconclusive: 11.2 µM [inhibitor, partial curve]
18 | NC(=O)CSc1nc2ccccc2c(=O)n1CCc1ccccc1 | inactive
19 | COc1cccc(-c2nc(CS(=O)(=O)CC(=O)Nc3ccc(C(C)=O)cc3)c(C)o2)c1 | active: 11.2 µM
20 | CN1C(=O)/C(=C2\SC(=S)N(CCCCCC(=O)O)C2=O)c2ccccc21 | inactive
21 | CCc1nn(CCCC(=O)N2CCC(C)CC2)c(=O)c2cc3occc3n12 | inconclusive: 31.6 µM [inhibitor, single point]
22 | CCOC(=O)c1sc(=S)n(-c2ccccc2)c1SC | inconclusive: 35.5 µM [inhibitor, partial curve, poor fit]
23 | Cc1cc(C)cc(NS(=O)(=O)c2cc(C(=O)NCc3ccccn3)ccc2Cl)c1 | inactive
24 | COc1ccc(CCC(=O)Nc2cccc(S(=O)(=O)N3CCCCCC3)c2)cc1OC | inconclusive: 4.47 µM [inhibitor, partial curve]

Row | Structure (SMILES) | Potency
25 | COc1ccc(C[C@H]2CN3C(=NC[C@@H]3C)N2CCNC(=O)CCC2CCCCC2)cc1 | inactive
26 | C=CC(=O)N1C/C(=C/c2ccccc2)C(=O)/C(=C\c2ccccc2)C1 | active: 6.31 µM
27 | Cc1cccc(NC(=O)CSc2nsc(SCC(=O)Nc3cccc(C)c3)c2C#N)c1 | inconclusive: 10 µM [inhibitor, partial curve]
28 | O=C(c1cccc(Cl)c1)N1CCC2(CC1)NCCc1[nH]cnc12 | inconclusive: 31.6 µM [inhibitor, single point]
29 | CSc1ccc(CN2CCC(Oc3ccc(C(=O)N4CCCC4)cc3)CC2)cc1 | inactive
30 | CCOc1ccc(-c2cccc(NC(=O)c3ccc(Br)o3)c2)nn1 | inconclusive: 3.55 µM [inhibitor, partial curve]
31 | COC(=O)c1ccc(COc2ccc(C3C4=C(CCCC4=O)Nc4onc(C)c43)cc2)cc1 (stereo unspecified) | inactive and inconclusive: 3.98 µM [inhibitor, full curve, poor fit]
32 | COC(=O)c1cccc(NC(=O)c2cccc([N+](=O)[O-])c2)c1 | inconclusive: 12.6 µM [inhibitor, single point]
33 | Cc1ccccc1Cn1cc(NC(=O)c2noc3c2CC(C(C)(C)C)CC3)cn1 (stereo unspecified) | inconclusive: 10 µM [inhibitor, partial curve]
34 | COc1ccc(CC(=O)Nc2ccc(F)c(Cl)c2)cc1S(=O)(=O)N1CCOCC1 | inconclusive: 31.6 µM [inhibitor, single point]
35 | O=C(O)CSc1nc2ccccc2o1 | inactive
36 | O=[N+]([O-])c1cc(C(F)(F)F)ccc1Cl | inconclusive: 3.55 µM [inhibitor, single point]
37 | O=C(OCc1ccccc1)c1ccccc1 | inactive
38 | COC(=O)c1cc(Cl)cc2c(CCO)c[nH]c12 | inconclusive: 11.2 µM [inhibitor, partial curve]
39 | COc1ccc(/C=N/NC(=O)c2nc(-c3ccccc3)cc(-c3ccccc3)n2)cc1O | inconclusive: 31.6 µM [inhibitor, single point]
40 | Cc1nc(C(=O)Nc2cc(F)cc(Cl)c2)sc1C1(C)CC(c2ccccc2)=NO1 (stereo unspecified) | active: 14.1 µM
41 | Cc1ccc(OCc2cc(C(=O)NCC(C)(C)N3CCOCC3)no2)cc1C | inconclusive: 7.94 µM [inhibitor, single point]
42 | O=c1cc(O)c2sc(Nc3ccc(Cl)c(F)c3)nc2[nH]1 | inconclusive: 4.47 µM [inhibitor, full curve]
43 | CCOc1ccccc1CN1CCNC(=O)C1CC(=O)N(C)C1CCOCC1 (stereo unspecified) | inactive
44 | COC(=O)c1c(C(=O)c2ccc(Br)cc2)n(C)c2ccccc12 | inactive
45 | CCn1c(=O)cc(SCC(=O)N2CCN(C)CC2)c2ccccc21 | inconclusive: 25.1 µM [inhibitor, single point]
46 | Cc1ccc(NC(=O)CCOc2ccccc2)cc1S(=O)(=O)Nc1ccccc1Cl | inconclusive: 31.6 µM [inhibitor, single point]
47 | CCOc1ccc(NC(=O)c2cc(OC)nc3ccccc23)cc1 | inconclusive: 0.501 µM [inhibitor, full curve, poor fit]
48 | O=C(NC(=S)Nc1ccccc1N1CCCC1)c1ccco1 | inactive

Row | Structure (SMILES) | Potency
49 | COc1ccc(CNC(=O)CCSc2nc(-c3ccc4c(c3)OCO4)cc(C(F)(F)F)n2)cc1 | inconclusive: 5.01 µM [inhibitor, full curve]
50 | COc1ccc(C(=O)N=C2SC3CS(=O)(=O)CC3N2Cc2ccc(F)cc2)cc1 (stereo unspecified) | inactive
51 | Cc1c(-c2cc(C(=O)O)on2)cnn1C | inactive
52 | NS(=O)(=O)c1ccc(Sc2nc3ccccc3s2)c([N+](=O)[O-])c1 | active: 22.4 µM
53 | CC(C)(C)OC(=O)NCc1ccc(CNC(=O)c2[nH]cnc2C(=O)N[C@@H](Cc2ccccc2)C(=O)OC(C)(C)C)cc1 | inconclusive: 35.5 µM [inhibitor, partial curve, poor fit]
54 | CCOc1ccc(-n2c(SCC(=O)OC)nc3sc4c(c3c2=O)CCN(C)C4)cc1 | inconclusive: 11.2 µM [inhibitor, partial curve]
55 | CC(=O)c1ccc(NC(=O)C(C)Sc2n[nH]c(-c3cccnc3)n2)cc1 (stereo unspecified) | inactive
56 | COc1ccc(C(=O)NCC2(c3ccccc3)CCCC2)c(OC)c1 | inconclusive: 31.6 µM [inhibitor, single point]
57 | Cc1cc(N(C)/N=C/c2ccccc2)nc(-c2ccccc2O)n1 | inconclusive: 2 µM [inhibitor, full curve]
58 | C[C@H](CO)N1C[C@H](C)[C@@H](CN(C)Cc2ccc(-c3ccccc3)cc2)Oc2c(NS(=O)(=O)c3cccs3)cccc2C1=O | inconclusive: 6.31 µM [inhibitor, single point]
59 | O=C(Nc1ccsc1C(=O)NC1CC1)c1ccccc1 | inconclusive: 1 µM [inhibitor, partial curve]
60 | COc1ccc(-c2coc3cc4oc(=O)cc(C)c4cc23)cc1F | inconclusive: 2.82 µM [inhibitor, full curve, poor fit]
61 | CC1=C(C(=O)OCc2ccccc2)C(c2ccsc2)C(C#N)=C(N)O1 (stereo unspecified) | inconclusive: 5.62 µM [inhibitor, single point]
62 | Cc1cccc(OCc2nnc(SCC(=O)N3c4ccccc4CCc4ccccc43)o2)c1 | inactive
63 | CCC1(c2ccccc2)NC(=O)N(CC(=O)Nc2ccccc2C(=O)NC2CC2)C1=O (stereo unspecified) | inconclusive: 5.01 µM [inhibitor, full curve]
64 | CCOC(=O)c1cnc2c(-c3ccccc3)c(C)nn2c1N | inconclusive: 2.82 µM [inhibitor, single point]
65 | CCOc1ccccc1C(=O)OCC(=O)Nc1cc(S(=O)(=O)N2CCOCC2)ccc1C | inactive
66 | CCOC(=O)c1c(C)[nH]c(C(=O)COC(=O)c2ccccc2NC(=O)c2ccco2)c1C | inconclusive: 11.2 µM [inhibitor, partial curve]
67 | Cn1c(C(=O)NCCc2c[nH]c3ccccc23)cc2sccc21 | inconclusive: 10 µM [inhibitor, partial curve]
68 | CC(C)(C)OC(=O)NC(Cc1ccccc1)C(=O)NC(CSC1CCCCO1)C(=O)NN (stereo unspecified) | inconclusive: 22.4 µM [inhibitor, single point]
69 | Cc1cccc(NC(=S)/N=C(\N)Nc2nc(C)c3ccccc3n2)c1 | active: 3.98 µM
70 | CCOC(=O)c1ccc(C(=O)NNC(=O)C2CC=CCC2)cc1 (stereo unspecified) | inactive
71 | O=C(NCc1nc(-c2ccc(C(F)(F)F)cc2)no1)Nc1ccc(OC(F)(F)F)cc1 | inconclusive: 31.6 µM [inhibitor, single point]
